For one assay, the target named is T1, main peptide chain X7.
T1 construct: Membrane chain of a chimeric antigen receptor: extracellular region of PD1, IL15Rαsushi, CD8 transmembrane domain, 41BB + CD3ζ; Expressed on NK92 and T cells; also called main peptide chain of RaceCar-10
Description: flow cytometry with anti-hIL-15 PE on RaceCar-infected NK92 and T cells (legend of FIG. 4). An excerpt:
(§1) 1.) RaceCar-1-NK92, RaceCar-2-NK92, RaceCar-3-NK92, RaceCar-4-NK92, RaceCar-5-NK92, RaceCar-6-NK92, RaceCar-7-NK92, RaceCar-9-NK92, RaceCar-10-NK92, RaceCar-11-NK92, RaceCar-12-NK92, RaceCar-13-NK92, RaceCar-14-NK92, RaceCar-1-T, RaceCar-2-T, RaceCar-3-T, RaceCar-4-T, RaceCar-5-T, RaceCar-6-T, RaceCar-7-T, RaceCar-9-T, RaceCar-10-T, RaceCar-11-T, RaceCar-12-T, RaceCar-13-T, RaceCar-14-T cells obtained in example 4, are suspended in PBS (phosphate buffered saline) respectively, the concentration of cells is controlled to be in the range of 1*10\hat{ }6/ml.
(§2) 2.) 1.5 μl of anti-hIL-15 PE conjugates is (R&D, IC2471P) is added into 200 μl of treated cells and incubates on ice for 30 minutes. The supernatants are removed by centrifugation and the cells are re-suspended by adding an equal amount of PBS (phosphate buffer saline).
(§3) 3.) FACS analysis to verify RaceCar expressed on cell surface (FIG. 4). The horizontal coordinate in the figure represents the IL15 level, the T cell and the NK92 are not infected and used as negative control and there is no expression of IL15 on the surface detected. The expression of different levels of IL15 can be detected on the surfaces of T cells and NK92 cells infected with RaceCar virus. […] Meanwhile, IL15 is on a main peptide chain of RaceCar -12 and RaceCar-13, and can be directly detected.
(In general: Flow cytometry measures light scatter and fluorescence of single cells or particles in a stream.)

In another assay the target is T2, main peptide chain X2.
T2 construct: Membrane chain of a chimeric antigen receptor: AntiMHC/GP100-VHH, IL15Rαsushi, CD8 transmembrane domain, 41BB + CD3ζ; Expressed on NK92 and T cells; also called main peptide chain of RaceCar-2 and RaceCar-3
The assay is described as above.
From the text: as §1, §2, §3

T2 sequence (chain, as listed by the source): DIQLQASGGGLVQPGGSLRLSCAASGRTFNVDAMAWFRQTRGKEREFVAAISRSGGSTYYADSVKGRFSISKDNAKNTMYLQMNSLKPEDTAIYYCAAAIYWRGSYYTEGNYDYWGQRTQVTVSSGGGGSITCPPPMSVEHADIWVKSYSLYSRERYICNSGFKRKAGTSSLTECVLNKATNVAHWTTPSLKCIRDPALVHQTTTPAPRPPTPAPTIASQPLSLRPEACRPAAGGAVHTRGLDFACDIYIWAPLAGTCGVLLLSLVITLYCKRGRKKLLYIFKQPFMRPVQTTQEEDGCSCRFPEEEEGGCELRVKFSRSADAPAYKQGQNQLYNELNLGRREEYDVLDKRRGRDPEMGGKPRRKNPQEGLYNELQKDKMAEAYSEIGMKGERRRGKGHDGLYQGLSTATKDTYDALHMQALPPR
T1 sequence (chain, as listed by the source): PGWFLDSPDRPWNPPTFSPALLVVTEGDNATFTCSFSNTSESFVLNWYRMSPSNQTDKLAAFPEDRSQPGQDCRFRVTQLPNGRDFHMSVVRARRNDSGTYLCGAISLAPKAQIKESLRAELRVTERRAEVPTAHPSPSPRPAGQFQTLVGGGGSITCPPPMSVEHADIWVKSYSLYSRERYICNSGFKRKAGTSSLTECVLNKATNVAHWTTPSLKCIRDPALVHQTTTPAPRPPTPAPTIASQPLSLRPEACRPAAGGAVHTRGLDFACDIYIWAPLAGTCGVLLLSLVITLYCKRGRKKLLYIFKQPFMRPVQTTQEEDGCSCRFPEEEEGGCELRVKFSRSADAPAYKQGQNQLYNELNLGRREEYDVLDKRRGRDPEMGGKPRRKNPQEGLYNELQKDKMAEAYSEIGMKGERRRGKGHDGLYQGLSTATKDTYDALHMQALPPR

B1: co-peptide chain Y5 (other)
chain: QLLESGGGLVQPGGSLRLSCAASGYRISSDDMSWVRQAPGKGLEWVSTIYETDGSTYYADSVKGRFTISRDNSKNTLYLQMNSLRAEDTAVYYCARANFYSEQPFQFWGQGTLVTVSSGGGGS[sequence of about 120 residues omitted]
notes: A 2A signal peptide is added in front of it for expression; also called co-peptide chain of RaceCar-10 and RaceCar-14
For B1, the binding result with main peptide chain X7 is reported as “binds”.

B2: co-peptide chain Y2 (other)
chain: DVQLQASGGGLVQAGDSLRLSCAASGRTFSTYNMGWFRQAPGKDREFVAAIMWSGGSTYYADSVKGRFTISKDNAKNTVYLQMNSLKPEDTAVYFCWSTDDYGVDSWGQGTQVTVSSGGGGS[sequence of about 120 residues omitted]
notes: A 2A signal peptide is added in front of it for expression; also called co-peptide chain of RaceCar-3
For the molecule B2, the binding result with main peptide chain X2 was “binds”.

For the origin of these results see patent US20220064595A1 (SHENZHEN BEIKE BIOTECHNOLOGY, published 2022).
